{"source": "the supplement of paper PMC8728848", "experiment_in_all_cases": "glycan array binding signal (z-score within array); higher = stronger binding", "conditions_in_all_cases": "glycan notation: IUPAC condensed, linker removed; mutation: F335Y", "key": {"[1]": {"target": "Fuc(a1-2)[GalNAc(a1-3)]Gal(b1-4)[Fuc(a1-3)]GlcNAc", "summary_of_the_method": "(§1)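 The Consortium for Functional Glycomics database supplied 3228 glycan arrays, of which those lacking an available protein sequence were dropped. The binding signal, a within-array Z-score, was averaged across arrays of the same protein sequence and across linkers. Negative scores can be read as non-binding.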"}, "[2]": {"target": "Fuc(a1-2)[GalNAc(a1-4)]Gal(b1-4)GlcNAc", "summary_of_the_method": "as §1"}, "[3]": {"target": "Fuc(a1-2)[GalNAc(b1-3)]Gal", "summary_of_the_method": "as §1"}, "[4]": {"target": "Fuc(a1-3)GlcNAc", "summary_of_the_method": "as §1"}, "[5]": {"target": "Fuc(a1-3)[Gal(b1-4)]Glc6S", "summary_of_the_method": "as §1"}, "[6]": {"target": "Fuc(a1-3)[Gal(b1-4)]GlcNAc", "summary_of_the_method": "as §1"}, "[7]": {"target": "Fuc(a1-3)[Gal(b1-4)]GlcNAc(b1-2)Man(a1-3)[Fuc(a1-3)[Gal(b1-4)]GlcNAc(b1-2)Man(a1-6)]Man(b1-4)GlcNAc(b1-4)GlcNAc", "summary_of_the_method": "as §1"}, "[8]": {"target": "Fuc(a1-3)[Gal(b1-4)]GlcNAc(b1-2)Man(a1-6)[Gal(b1-4)GlcNAc(b1-2)Man(a1-3)]Man(b1-4)GlcNAc(b1-4)GlcNAc", "summary_of_the_method": "as §1"}, "[9]": {"target": "Fuc(a1-3)[Gal(b1-4)]GlcNAc(b1-3)Gal(b1-3)[Fuc(a1-4)]GlcNAc", "summary_of_the_method": "as §1"}, "[10]": {"target": "Fuc(a1-3)[Gal(b1-4)]GlcNAc(b1-4)Gal(b1-4)[Fuc(a1-3)]GlcNAc", "summary_of_the_method": "as §1"}, "[11]": {"target": "Fuc(a1-3)[Gal(b1-4)]GlcNAc(b1-4)Gal(b1-4)[Fuc(a1-3)]GlcNAc(b1-4)Gal(b1-4)[Fuc(a1-3)]GlcNAc", "summary_of_the_method": "as §1"}, "[12]": {"target": "Fuc(a1-3)[Gal(b1-4)]GlcNAc6S", "summary_of_the_method": "as §1"}, "[13]": {"target": "Fuc(a1-3)[Gal3S(b1-4)]Glc6S", "summary_of_the_method": "as §1"}, "[14]": {"target": "Fuc(a1-3)[Gal3S(b1-4)]GlcNAc", "summary_of_the_method": "as §1"}, "[15]": {"target": "Fuc(a1-3)[Gal3S(b1-4)]GlcNAc6S", "summary_of_the_method": "as §1"}, "[16]": {"target": "Fuc(a1-3)[GalNAc(b1-4)]GlcNAc", "summary_of_the_method": "as §1"}, "[17]": {"target": "Fuc(a1-4)GlcNAc", "summary_of_the_method": "as §1"}, "[18]": {"target": "Fuc(b1-3)GlcNAc", "summary_of_the_method": "as §1"}, "[19]": {"target": "Gal(a1-2)Gal", "summary_of_the_method": "as §1"}, "[20]": {"target": "Gal(a1-3)Gal", "summary_of_the_method": "as §1"}, "[21]": {"target": "Gal(a1-3)Gal(b1-3)GlcNAc", "summary_of_the_method": "as §1"}, "[22]": {"target": "Gal(a1-3)Gal(b1-4)Glc", "summary_of_the_method": "as §1"}, "[23]": {"target": "Gal(a1-3)Gal(b1-4)GlcNAc", "summary_of_the_method": "as §1"}, "[24]": {"target": "Gal(a1-3)Gal(b1-4)[Fuc(a1-3)]GlcNAc", "summary_of_the_method": "as §1"}, "[25]": {"target": "Gal(a1-3)GalNAc", "summary_of_the_method": "as §1"}, "[26]": {"target": "Gal(a1-3)[Gal(a1-4)]Gal(b1-4)GlcNAc", "summary_of_the_method": "as §1"}, "[27]": {"target": "Gal(a1-4)Gal(b1-4)Glc", "summary_of_the_method": "as §1"}, "[28]": {"target": "Gal(a1-4)Gal(b1-4)GlcNAc", "summary_of_the_method": "as §1"}, "[29]": {"target": "Gal(a1-4)GlcNAc", "summary_of_the_method": "as §1"}, "[30]": {"target": "Gal(a1-6)Glc", "summary_of_the_method": "as §1"}, "[31]": {"target": "Gal(b1-2)Gal", "summary_of_the_method": "as §1"}, "[32]": {"target": "Gal(b1-3)Gal", "summary_of_the_method": "as §1"}, "[33]": {"target": "Gal(b1-3)Gal(b1-4)GlcNAc", "summary_of_the_method": "as §1"}, "[34]": {"target": "Gal(b1-3)GalNAc", "summary_of_the_method": "as §1"}, "[35]": {"target": "Gal(b1-3)GalNAc(b1-3)Gal(a1-4)Gal(b1-4)Glc", "summary_of_the_method": "as §1"}, "[36]": {"target": "Gal(b1-3)GalNAc(b1-4)Gal(b1-4)Glc", "summary_of_the_method": "as §1"}, "[37]": {"target": "Gal(b1-3)GalNAc(b1-4)[Neu5Ac(a2-3)]Gal(b1-4)Glc", "summary_of_the_method": "as §1"}}, "note": "The list shows a part of the results."}
{"binder": "Surfactant Protein D (Human); Neck + Carbohydrate Recognition Domain (NCRD) (Homo sapiens) (protein) MLLFLLSALVLLTQPLGYLEAEMKTYSHRTMPSACTLVMCSSVESGLPGRDRDGREGPRGEKGDPGLPGAAGQAGMPGQAGPVGPKGDNGSVGEPGPKGDTGPSGPPGPPGVPGPAGREGALGKQGNIGPQGKPGPKGEAGPKGEVGAPGMQGSAGARGLAGPKGERGVPGERGVPGNTGAAGSAGAMGPQGSPGARGPPGLKGDKGIPGDKGAKGESGLPDVASLRQQVEALQGQVQHLQAAFSQYKKVELFPNGQSVGEKIFKTAQFVKPFTEAQLLCTQAGGQLASPRSAAENAALQQLVVAKNEAAFLSMTDSKTEGKFTYPTGESLVYSNWAPGEPNDDGGSEDCVEIYTNGKWNDRACGEKRLVVCEF", "values": [{"measurement": "glycan array binding signal (z-score)", "setting": "[1]", "value": -0.155}, {"measurement": "glycan array binding signal (z-score)", "setting": "[2]", "value": -0.176}, {"measurement": "glycan array binding signal (z-score)", "setting": "[3]", "value": -0.177}, {"measurement": "glycan array binding signal (z-score)", "setting": "[4]", "value": -0.145}, {"measurement": "glycan array binding signal (z-score)", "setting": "[5]", "value": -0.192}, {"measurement": "glycan array binding signal (z-score)", "setting": "[6]", "value": -0.181}, {"measurement": "glycan array binding signal (z-score)", "setting": "[7]", "value": -0.19}, {"measurement": "glycan array binding signal (z-score)", "setting": "[8]", "value": -0.189}, {"measurement": "glycan array binding signal (z-score)", "setting": "[9]", "value": -0.181}, {"measurement": "glycan array binding signal (z-score)", "setting": "[10]", "value": -0.183}, {"measurement": "glycan array binding signal (z-score)", "setting": "[11]", "value": -0.188}, {"measurement": "glycan array binding signal (z-score)", "setting": "[12]", "value": -0.166}, {"measurement": "glycan array binding signal (z-score)", "setting": "[13]", "value": -0.154}, {"measurement": "glycan array binding signal (z-score)", "setting": "[14]", "value": -0.187}, {"measurement": "glycan array binding signal (z-score)", "setting": "[15]", "value": -0.083}, {"measurement": "glycan array binding signal (z-score)", "setting": "[16]", "value": -0.188}, {"measurement": "glycan array binding signal (z-score)", "setting": "[17]", "value": -0.07}, {"measurement": "glycan array binding signal (z-score)", "setting": "[18]", "value": -0.188}, {"measurement": "glycan array binding signal (z-score)", "setting": "[19]", "value": -0.166}, {"measurement": "glycan array binding signal (z-score)", "setting": "[20]", "value": -0.167}, {"measurement": "glycan array binding signal (z-score)", "setting": "[21]", "value": -0.152}, {"measurement": "glycan array binding signal (z-score)", "setting": "[22]", "value": -0.18}, {"measurement": "glycan array binding signal (z-score)", "setting": "[23]", "value": -0.188}, {"measurement": "glycan array binding signal (z-score)", "setting": "[24]", "value": -0.184}, {"measurement": "glycan array binding signal (z-score)", "setting": "[25]", "value": -0.185}, {"measurement": "glycan array binding signal (z-score)", "setting": "[26]", "value": -0.184}, {"measurement": "glycan array binding signal (z-score)", "setting": "[27]", "value": -0.189}, {"measurement": "glycan array binding signal (z-score)", "setting": "[28]", "value": -0.187}, {"measurement": "glycan array binding signal (z-score)", "setting": "[29]", "value": -0.195}, {"measurement": "glycan array binding signal (z-score)", "setting": "[30]", "value": -0.189}, {"measurement": "glycan array binding signal (z-score)", "setting": "[31]", "value": -0.189}, {"measurement": "glycan array binding signal (z-score)", "setting": "[32]", "value": -0.19}, {"measurement": "glycan array binding signal (z-score)", "setting": "[33]", "value": -0.183}, {"measurement": "glycan array binding signal (z-score)", "setting": "[34]", "value": -0.19}, {"measurement": "glycan array binding signal (z-score)", "setting": "[35]", "value": -0.193}, {"measurement": "glycan array binding signal (z-score)", "setting": "[36]", "value": -0.192}, {"measurement": "glycan array binding signal (z-score)", "setting": "[37]", "value": -0.174}]}
